From publication PMC4336329 (PLoS ONE, 2015)
Screen size: about 310,000 compounds; about 14,000 (4.5%) showed an effect of 50% or more. Effects have a minus sign here. Some of the results follow.

Each compound was assayed against human ether-à-go-go-related gene (hERG) potassium channel (human, UniProt Q12809) (assay: primary screen, population patch clamp on CHO cells stably expressing hERG).
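Note: peak tail current of the secondary pulse compared with the same well before compound.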

Chain of human ether-à-go-go-related gene (hERG) potassium channel (Q12809 whole entry, looked up): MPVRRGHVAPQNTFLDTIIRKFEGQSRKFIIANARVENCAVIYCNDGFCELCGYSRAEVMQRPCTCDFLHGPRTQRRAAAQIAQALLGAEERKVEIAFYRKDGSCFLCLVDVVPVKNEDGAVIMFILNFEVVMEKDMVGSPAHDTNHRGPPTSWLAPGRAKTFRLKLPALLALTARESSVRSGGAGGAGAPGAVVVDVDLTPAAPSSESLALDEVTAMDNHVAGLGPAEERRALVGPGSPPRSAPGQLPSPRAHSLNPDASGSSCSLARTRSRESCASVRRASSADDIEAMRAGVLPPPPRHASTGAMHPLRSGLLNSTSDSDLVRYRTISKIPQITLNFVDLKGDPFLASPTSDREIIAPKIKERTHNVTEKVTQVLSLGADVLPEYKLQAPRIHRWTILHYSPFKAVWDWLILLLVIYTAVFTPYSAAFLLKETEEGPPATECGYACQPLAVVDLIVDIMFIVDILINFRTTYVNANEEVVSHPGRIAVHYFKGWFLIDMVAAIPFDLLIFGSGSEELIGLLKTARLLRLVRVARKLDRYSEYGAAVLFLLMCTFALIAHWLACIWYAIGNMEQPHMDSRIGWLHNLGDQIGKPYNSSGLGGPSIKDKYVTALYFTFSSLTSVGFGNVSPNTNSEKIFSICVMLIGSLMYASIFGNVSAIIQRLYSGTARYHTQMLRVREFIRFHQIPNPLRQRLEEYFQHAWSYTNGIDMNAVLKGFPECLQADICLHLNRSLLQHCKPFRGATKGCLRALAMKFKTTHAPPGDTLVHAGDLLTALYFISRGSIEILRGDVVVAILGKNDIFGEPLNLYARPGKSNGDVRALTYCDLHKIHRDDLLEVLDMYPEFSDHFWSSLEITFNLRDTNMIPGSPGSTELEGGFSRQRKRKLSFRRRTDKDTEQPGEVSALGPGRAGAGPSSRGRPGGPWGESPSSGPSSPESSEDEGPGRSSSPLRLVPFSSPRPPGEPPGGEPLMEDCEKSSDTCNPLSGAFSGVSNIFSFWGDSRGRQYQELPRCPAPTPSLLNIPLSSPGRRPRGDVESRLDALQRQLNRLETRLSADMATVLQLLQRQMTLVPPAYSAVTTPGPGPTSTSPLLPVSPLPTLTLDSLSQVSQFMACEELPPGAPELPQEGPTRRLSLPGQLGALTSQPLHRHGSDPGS

SMILES | hERG current change (%, negative = inhibition) at 10uM
COc1ccc(C(=O)Cn2cnc3ccccc3c2=O)c(OC)c1 | -9.27%
Clc1ccsc1-c1csc(-c2cccnc2)n1 | 27.4%
Cc1ccnc(-n2c(C)cc(C=C3C(=O)N(C)C(=S)N(C)C3=O)c2C)c1 | 3.9%
O=C(NCCc1nnc2ccc(NCc3cccnc3)nn12)c1ccccc1F | 8.6%
CC(C)N(Cc1nc2ccccc2c(=O)[nH]1)C(=O)c1ccc(NC(=O)CSc2nnnn2C)cc1 | -4.55%
Cc1ccc(CNC(=O)CSc2nc(=O)n3ccccc3n2)cc1 | -40.4%
CN1CCN(C(=O)CCN2C(=O)/C(=C/c3ccccc3Cl)SC2=S)CC1 | 9.65%
O=S(=O)(NCC(c1ccco1)N1CCN(c2ccccc2)CC1)c1ccc(F)cc1 (centres unmarked) | 0.0547%
CC1CC(C)CN(CCCNC(=O)CCNC(=O)Cn2cnc3ccccc3c2=O)C1 (centres unmarked) | 18%
Cc1ncsc1CCOC(=O)c1cccnc1.Cl | 8.06%
CCc1c(C(=O)NC2CCCCC2)[nH]c(C)c1C(C)=O | 18.3%
S=c1[nH]nc(-c2ccc(Br)cc2)n1Cc1ccco1 | 5.97%
COc1ccc(N(CC(=O)Nc2ccc3c(c2)OCCO3)S(C)(=O)=O)c(OC)c1 | -6.42%
FC(F)(F)c1cccc(Cc2noc(CN3CCSCC3)n2)c1 | 0.814%
O=C(NC1CCCC1)C(c1cccnc1)N(Cc1ccccc1)C(=O)c1csnn1 (centres unmarked) | -5.65%
Cc1ccc(C(c2sc3nc(C)nn3c2O)N2CCN(CCO)CC2)cc1 (centres unmarked) | 1.95%
CC(C)(C)n1nc2c(c1NC(=O)c1ccc(S(=O)(=O)N3CCCC3)cc1)CSC2 | 1.95%
Cc1cccc(COCC(Cc2ccccc2)N2CCN(C(=O)c3cccc(Cl)c3)CCC2=O)c1 (centres unmarked) | -15.1%
O=C(O)c1cc([N+](=O)[O-])ccc1NCCO | 4.94%
CC(=O)OC(C(=O)NCc1ccco1)c1cccnc1 (centres unmarked) | 10.1%
Cc1ccc(NC(=O)CN(C)C(=O)CCOc2cccc(C)c2)cc1 | -4.49%
FCCCOc1ccc(-c2ccnc(-c3ccccc3)n2)cc1 | 13%

SMILES | hERG current change (%, negative = inhibition) at 10uM
COc1ccccc1Oc1ccc(S(=O)(=O)Nc2cccnc2)cc1 | 3.02%
CC(=O)Oc1ccc2c(c1)C(=O)c1ccccc1CO2 | -14.8%
Cc1cc(C)cc(NC(=S)N2CCC(NC(=O)c3ccccc3C)CC2)c1 | -0.357%
CCCOc1cccc(C2/C(=C(/O)c3ccc4c(c3)CC(C)O4)C(=O)C(=O)N2CCN2CCOCC2)c1 (centres unmarked) | 15.3%
COc1cccc(-n2c(Cc3cc(=O)[nH]c(=O)[nH]3)nnc2SC(C)C)c1 | -3.92%
O=C(O)/C(=C\c1ccc(Cl)c([N+](=O)[O-])c1)c1ccc(S(=O)(=O)N2CCCCC2)s1 | -2.26%
NC(=O)CNC(=O)[C@@H]1CC2(CC(c3ccc(Cl)cc3)=NO2)CN1C(=O)c1ccc(Br)cc1 (some centres unmarked) | 8.29%
CCN(Cc1ccccc1)C(=O)CCS(=O)(=O)c1ccc2c(c1)oc(=O)n2C | -0.651%
CC(=O)NC(CC(=O)OCC(=O)c1ccc(NC(=O)CC(C)C)cc1)c1ccccc1 (centres unmarked) | -24.6%
CCOc1ccc(S(=O)(=O)N(C)c2ccc(OCC(=O)NC3=NCCS3)cc2)cc1 | -8.28%
O=C(O)/C=C\C(=O)Nc1cccc(NC(=O)c2ccccc2)c1 | 28.8%
Clc1ccccc1CN1CCN(c2ccccc2Cl)CC1 | 16%
COc1cccc(CC(=O)OC(C)C(=O)NCc2ccc3c(c2)OCO3)c1 (centres unmarked) | -3.97%
COc1ccccc1N(CC(O)COc1ccccc1C)S(=O)(=O)c1ccccc1 (centres unmarked) | 5.48%
CCOc1cc(NC(=O)c2ccccc2C(=O)O)c(OCC)cc1NC(=O)c1ccccc1F | -15.9%
Cc1nnc(Sc2nc3c(c(=O)n(C)c(=O)n3C)n2Cc2ccc(Cl)cc2)s1 | -26.9%
CN(C)CC1CCCCC1OC(=O)/C=C/c1ccccc1.Cl (centres unmarked) | -33.2%
N/C(=N\OC(=O)c1ccc2c(c1)OCO2)c1ccc([N+](=O)[O-])cc1 | 10.8%
CCOc1ccc(N2CC(C(=O)OCC(=O)c3ccc(OC)cc3)CC2=O)cc1 (centres unmarked) | -56%
O=C(CNC(=O)c1cc(Cl)cc([N+](=O)[O-])c1)OCC(=O)N1CCCCC1 | 4.79%
COc1ccc(N(CC(=O)N/N=C/c2ccccc2F)S(=O)(=O)c2ccccc2)cc1 | 7.51%
Cc1nnsc1C(=O)N(Cc1ccccc1)C(C)C | 6.73%

SMILES | hERG current change (%, negative = inhibition) at 10uM
CCNC(=O)CON=C1c2ccccc2-c2ccccc21 | -7.02%
COc1ccccc1CC(=O)Nc1ncc(C)s1 | 9.97%
Cc1cccc(NC(=O)CSc2nnc(CN3CCOCC3)n2C)c1C | 29.9%
Cc1nc2ccc(S(=O)(=O)NCC(=O)N3CCC(C)CC3)cc2s1 | 17.2%
COc1ccc(NS(=O)(=O)c2cccc(C(=O)NNC(=O)c3ccccc3O)c2)cc1 | -3.73%
CCOC(=O)C1=C(C)N(CCCCCC(=O)O)C(=O)NC1c1cccc([N+](=O)[O-])c1 (centres unmarked) | 17.1%
O=C(COC(=O)CNS(=O)(=O)c1ccc2ccccc2c1)Nc1ccc2c(c1)OCO2 | 7.2%
Cc1nc(COC(=O)c2ccc(CO)cc2)cs1 | 14.1%
C/C(N)=C(/C#N)C(=O)CSc1nc2ccccc2c(=O)n1-c1ccccc1C | 6.46%
CCOc1ccc(OCC)c(S(=O)(=O)NCc2ccc3c(c2)OCO3)c1 | -19.1%
O=C(/C=C/Nc1ccc(F)cc1Br)c1ccccc1 | 11.9%
COc1ccccc1-n1c(SCC(=O)NCc2ccc3c(c2)OCO3)nc2cc([N+](=O)[O-])ccc21 | -18.1%
CC(=Nc1cc(C(=O)c2ccccc2)ccc1N)C1=C(O)CC(C)(C)CC1=O | 6.72%
COc1cc(/C=C/C(=O)OCC(=O)NC(=O)NC(C)(C)C)ccc1O | -14.5%
CCCCn1c(N)c(N(CC(C)C)C(=O)CN(C)S(=O)(=O)c2ccc(NC(C)=O)cc2)c(=O)[nH]c1=O | 11.3%
CSc1ccc(CN2CCN(c3ccccc3C)CC2)cc1.O=C(O)C(=O)O | -54.5%
O=C(Nc1cc2c(cc1Cl)OCCCO2)c1ccco1 | -17.7%
FC(F)(F)c1ccnc(NCc2ccc(Cl)cc2)n1 | -7.18%
O=C(CCNC(=O)Cn1ccc2ccccc2c1=O)NCCCN1CCN(c2ccccc2F)CC1 | 10.1%
C=CCNC(=S)N1CC2(C)CN(C(=S)NCC=C)CC(C)(C1)C2=O | 21.3%
O=C(COc1ccc(Cl)cc1)N1CCCC1 | -7.47%
CN(C)c1ccc(NC(=O)c2cc3c(=O)n4ccccc4nc3n2C)cc1 | 16.1%

SMILES | hERG current change (%, negative = inhibition) at 10uM
COC(=O)C1=C(CSc2nc3c(cc2C#N)CN(C)CC3)OC(N)=C(C#N)C1c1ccccc1F (centres unmarked) | -17.6%
O=C(CNc1ccccc1Cl)Nc1cc(S(=O)(=O)N2CCOCC2)ccc1Cl | 0.286%
Cn1cc(S(=O)(=O)NCc2ccc(F)cc2)c(=O)n(C)c1=O | 17.8%
O=C(O)/C=C/C(=O)NCc1cn(-c2ccccc2)nc1-c1cccc(Br)c1 | 4.13%
COc1ccccc1NC(=O)N(Cc1ccco1)Cc1cc2cc(C)cc(C)c2[nH]c1=O | -2.39%
O=C(NCc1ccccc1F)C1CCN(C(=O)NCc2ccccc2)CC1 | -8.65%
CCOC(=O)Cc1csc(NC(=O)CN2CCN(c3ccccc3)CC2)n1 | 4.89%
COCCn1nnnc1C(c1cccc(C(F)(F)F)c1)N1CCOCC1.Cl (centres unmarked) | 21.4%
COc1ccc(C(=O)NC(=S)N2CCNC(=O)C2)cc1Br | 5.43%
Cc1nnc(NC(=O)c2ccc3c(c2)NC(=O)CS3)s1 | 12.5%
CC(NC(=O)CN1C(=O)NC(C)(c2cccc3ccccc23)C1=O)c1ccccc1 (centres unmarked) | 3.66%
CC(C)c1ccc(N(CC(=O)NCC2CCCO2)C(=O)Cn2nnc(-c3cccs3)n2)cc1 (centres unmarked) | -42.5%
CCOC(=O)c1c(-c2ccc(C)o2)csc1NC(=O)CSc1ncn[nH]1 | 3.96%
COc1cccc(-c2cc(C(=O)O)no2)c1 | -9.77%
CC(=O)c1ccc(NC(=S)N(Cc2ccccc2)C(C)C2CC2)cc1 (centres unmarked) | 5.51%
CC(O)c1nc2ccccc2n1Cc1ccc([N+](=O)[O-])cc1 (centres unmarked) | -73.4%
CN(C)c1cc[n+](Cc2c(Cl)cccc2Cl)cc1.[Cl-] | 18.6%
O=C(/C=C/c1cc(Br)ccc1F)OCC(=O)N1CCCC1 | -21.9%
Cc1ccnc(N2CCCC(C(=O)NCc3cccs3)C2)n1 (centres unmarked) | -3.18%
CC(c1ccccc1)[n+]1ccccc1.[O-][Cl+3]([O-])([O-])[O-] (centres unmarked) | 8.98%
